The list shows a part of the results.

The subject of this assay is S. aureus RN4220. Kind of assay: growth inhibition call (relative growth <= 0.2). The settings on record: 50 µM.
Turning to `C[C@@H]1CN([C@H](C)CO)S(=O)(=O)c2ccc(C#Cc3cccc(F)c3)cc2O[C@H]1CN(C)S(=O)(=O)c1cn(C)cn1`, the growth inhibition call was “inactive”.

In the case of `C[C@H](CO)N1C[C@H](C)[C@H](CN(C)C(=O)C2CCCCC2)OCCCC[C@H](C)Oc2ccc(NC(=O)c3ccccc3)cc2C1=O`, the growth inhibition call is “inactive”.

Take `C[C@@H]1CN([C@H](C)CO)C(=O)Cc2cc(NS(=O)(=O)c3cn(C)cn3)ccc2O[C@@H]1CN(C)CC1CCCCC1`: the growth inhibition call was “inactive”.

Take `C[C@@H]1CCCCO[C@H](CN(C)C(=O)NC2CCCCC2)[C@H](C)CN([C@@H](C)CO)C(=O)c2cc(NC(=O)C3CCCCC3)ccc2O1`: the growth inhibition call is “inactive”.

As to `OCc1ccc(O[C@@H]2O[C@H](CO)[C@@H](O)[C@H](O)[C@H]2O)cc1`, the growth inhibition call was “inactive”.

For the compound `C[C@@H]1CN([C@H](C)CO)C(=O)Cc2cc(NC(=O)Nc3ccc(C(F)(F)F)cc3)ccc2O[C@@H]1CN(C)Cc1ccc(C(=O)O)cc1`, the growth inhibition call is “inactive”.

Take `CS(=O)(=O)CS(=O)(=O)C1=C(N2CCOCC2)C2CCN1CC2`: the growth inhibition call is “inactive”.

Regarding `Cc1ccccc1S(=O)(=O)N1C[C@@H](O)COC[C@@H]2O[C@@H](CC(=O)N3CCOCC3)CC[C@H]21`, the growth inhibition call is “inactive”.

In the case of `COCC#Cc1ccc([C@H]2[C@@H](CO)N3C(=O)CN(C(=O)C4CCOCC4)C[C@H]23)cc1`, the growth inhibition call was “inactive”.

With `C[C@@H]1CN([C@H](C)CO)C(=O)c2cc(NC(=O)CCCN(C)C)ccc2O[C@@H]1CN(C)S(=O)(=O)c1cccs1`, the growth inhibition call is “inactive”.

These data come from the antibiotic and cytotoxicity screens of Wong et al. (2023).
